According to PubChem BioAssay AID651820 (National Center for Advancing Translational Sciences (NCATS), 2012):
Values joined by “and” are separate entries in the source; they are usually repeats but may differ in a detail not shown here. Equal values may be shown once. Out of some 340,000 compounds screened, about 12,000 (3.5%) were called active. The inconclusive results got no clear call from the source; some entries with a clear call stand among them for comparison. Calls come from the whole dose curve; as a rule, active = well fitted inhibition curve with a large enough effect; inconclusive = small, poorly fitted or top-dose-only effect, or another doubt; inactive = no such curve, though single readings can be large or run the other way. A potency beside an inconclusive call is a rough fit, not a confirmed value.

Assay: qHTS Assay for Inhibitors of Hepatitis C Virus (HCV)
Details: Huh7.5.1 HCVcc-Cre (HCVcc is cell-culture hepatitis C virus) infection, luciferase reporter, 44 h; activity change, negative = inhibition: at 41.8 µM (top of the series) unless noted
Method in brief: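 After 44 h co-culture of compound, cells and HCVcc-Cre (~0.5 moi), substrate is added for 15 min at room temperature and luciferase measured over 15 sec. Cells were seeded at 1,000/well and pre-cultured 4 h.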
% is set by controls: 0 for no effect and ±100 for the full control effect; potency is the fitted concentration of half-maximal effect; tags give direction and shape of the fitted curve.

**Q.** With `COc1ccccc1CNC(=O)COC(=O)c1ccc(-n2cnnn2)cc1` as the compound, how does the “activity change, negative = inhibition” value read?
**A.** inactive: 1.24%

**Q.** With `CCc1ccc(CNCCc2ccc(F)cc2)cc1` as the compound, how does the Potency read?
**A.** inconclusive: 15.8 µM [inhibitor, single point]

**Q.** With `COc1ccc(-c2cn[nH]c2-c2ccc(OCc3ccccc3F)cc2O)cc1OC` as the compound, how does the Potency read?
**A.** active: 11.2 µM

**Q.** With `COc1ccc(OC)c(CC(=O)Nc2cc(S(=O)(=O)N3CCCCC3)ccc2C)c1` as the compound, how does the Potency read?
**A.** inconclusive: 11.2 µM [inhibitor, partial curve]

**Q.** With `N#Cc1c(NC(=O)c2ccccc2)sc2c1CCC2` as the compound, how does the Potency read?
**A.** inconclusive: 3.55 µM [inhibitor, full curve]

**Q.** Which Potency does the source give for `Cc1cccc(Cn2nnc3c2C(=O)c2ccccc2C3=O)c1` here?
**A.** inconclusive: 17.8 µM [inhibitor, partial curve, poor fit]

**Q.** For `Cc1c(C(=O)NC2CCCc3ccccc32)oc2ccc(S(=O)(=O)N3CCCC3)cc12` (configuration not stated), which Potency is on record?
**A.** inconclusive: 7.08 µM [inhibitor, partial curve]

**Q.** Which “activity change, negative = inhibition” value does the source give for `CC(C)C(=O)NC(=S)N1CCc2ccccc21` here?
**A.** inactive: -3.68%

**Q.** Which “activity change, negative = inhibition” value does the source give for `Cc1cccc(NC(=S)NC23CN4CN(CN(C4)C2)C3)c1C` here?
**A.** inactive: -6.13%

**Q.** For `COc1ccc(N(CC(=O)N/N=C/c2ccc(F)cc2)S(=O)(=O)c2ccccc2)cc1`, which “activity change, negative = inhibition” value is on record?
**A.** inactive: -3.43%

**Q.** For `CN1CCN(C(=O)c2ccc(-c3ccc(Br)cc3)o2)CC1`, which Potency is on record?
**A.** inconclusive: 3.16 µM [inhibitor, single point]

**Q.** With `Cc1ccc2c(CN3CCN(S(=O)(=O)/C=C/c4ccccc4)CC3)cc(=O)oc2c1` as the compound, how does the Potency read?
**A.** inconclusive: 10 µM [inhibitor, partial curve]

**Q.** Which “activity change, negative = inhibition” value does the source give for `Cc1cc(NS(=O)(=O)c2ccc(NC(=O)/C=C/c3c(F)cccc3Cl)cc2)no1` here?
**A.** inactive: -5.13%

**Q.** Which Potency does the source give for `C=CC[n+]1c(-c2ccc(OC)cc2)csc1NNC(=O)Nc1ccccc1` here?
**A.** active: 11.2 µM

**Q.** Which Potency does the source give for `c1ccc(Cc2cc(-c3ccccc3)on2)cc1` here?
**A.** inconclusive: 3.16 µM [inhibitor, partial curve]

**Q.** For `Cc1nn(Cc2c(F)c(F)c(F)c(F)c2F)c(C)c1NC(=O)c1ccc(COc2cc(Cl)ccc2Cl)cc1`, which Potency is on record?
**A.** inconclusive: 2.51 µM [inhibitor, full curve, poor fit]

**Q.** For `COc1ccc2[nH]cc(C(=O)CN3CCCC(C)(C)C3)c2c1`, which Potency is on record?
**A.** inconclusive: 31.6 µM [inhibitor, single point]

**Q.** With `O=[N+]([O-])c1ccc(NN=Cc2ccc(O)cc2O)nc1` as the compound, how does the Potency read?
**A.** inconclusive: 12.6 µM [inhibitor, partial curve]

**Q.** For `Cc1ccc(Cn2c(CN(C)Cc3ccccc3)nc3c2c(=O)n(C)c(=O)n3C)cc1`, which Potency is on record?
**A.** inconclusive: 11.2 µM [inhibitor, partial curve]

**Q.** Which Potency does the source give for `CC(=O)O[C@H]1C(=O)[C@@]2(C)C([C@H](OC(=O)c3ccccc3)[C@]3(O)C[C@H](OC(=O)[C@H](O)[C@@H](NC(=O)Cc4ccccc4)c4ccccc4)C(C)=C1C3(C)C)[C@]1(OC(C)=O)CO[C@@H]1C[C@@H]2O` (some centres not stated) here?
**A.** inconclusive: 3.55 µM [inhibitor, partial curve]

**Q.** Which “activity change, negative = inhibition” value does the source give for `CC(C)c1nc2cc(C(=O)N3CCNC(=O)C3c3cccc(F)c3)ccc2o1` (configuration not stated) here?
**A.** inactive: 2.66%

**Q.** With `Cc1cc(C)nc(NS(=O)(=O)c2ccc(NC(=O)c3ccco3)cc2)n1` as the compound, how does the “activity change, negative = inhibition” value read?
**A.** inactive: -0.78%

**Q.** Which Potency does the source give for `CCC1CCc2sc(C(=O)NCC(c3ccccc3OC)N3CCCC3)cc2C1` (configuration not stated) here?
**A.** active: 7.08 µM

**Q.** Which Potency does the source give for `COc1ccc(N(CC(=O)Nc2cc(C)ccc2OC)S(=O)(=O)c2c(C)noc2C)cc1` here?
**A.** inconclusive: 12.6 µM [inhibitor, single point]

**Q.** For `COc1ccc(-c2coc3c(CN4CCCCC4C)c(O)ccc3c2=O)cc1` (configuration not stated), which Potency is on record?
**A.** inconclusive: 10 µM [inhibitor, partial curve]

**Q.** Which “activity change, negative = inhibition” value does the source give for `CC(OC(=O)c1cccc(-n2cnnn2)c1)C(=O)c1ccccc1` (configuration not stated) here?
**A.** inactive: -4.49%

**Q.** For `S=c1[nH]nc(Cc2ccccc2)n1-c1cccc2ccccc12`, which Potency is on record?
**A.** inconclusive: 31.6 µM [inhibitor, single point]

**Q.** Which Potency does the source give for `C[c-]1[c-](C)[c-](C)[c-](C)[c-]1C.[Fe].c1cc2nccc(N3CCCC3)[c-]2c1` (configuration not stated) here?
**A.** inactive and inconclusive: 31.6 µM [inhibitor, single point]

**Q.** For `Cc1cccc(-n2nnnc2SCC(=O)NCC2(N3CCOCC3)CCCCC2)c1C`, which Potency is on record?
**A.** inconclusive: 31.6 µM [inhibitor, single point]

**Q.** Which Potency does the source give for `CC1CN(C(=O)Nc2ccc3snnc3c2)c2ccccc21` (configuration not stated) here?
**A.** inconclusive: 22.4 µM [inhibitor, single point]

**Q.** Which Potency does the source give for `CCN(C(=O)Cc1cccs1)c1nnc(-c2cc(OC)c(OC)c(OC)c2)s1` here?
**A.** inactive and inconclusive: 10 µM [inhibitor, partial curve]

**Q.** Which Potency does the source give for `CCOC(=O)C1(CCCc2ccccc2)CCN(Cc2nccn2CC)CC1` here?
**A.** active: 10 µM

**Q.** For `CCOc1ccc(OCC)c(NC(=O)C2CCCN(c3ncccn3)C2)c1` (configuration not stated), which Potency is on record?
**A.** inconclusive: 6.31 µM [inhibitor, partial curve]

**Q.** Which “activity change, negative = inhibition” value does the source give for `O=C(NCCC1CCCCN1S(=O)(=O)c1ccc(F)cc1)C(=O)Nc1ccccc1` (configuration not stated) here?
**A.** inactive: -28.2%

**Q.** For `Cc1cc(C)c2c(n1)sc1c(=O)n(CC(=O)c3ccccc3)cnc12`, which Potency is on record?
**A.** inconclusive: 2.24 µM [inhibitor, full curve, poor fit]

**Q.** Which “activity change, negative = inhibition” value does the source give for `O=c1[nH][nH]c(C(F)(F)F)c1C=Nc1ccccc1` here?
**A.** inactive: 5.36%

**Q.** Which Potency does the source give for `CN1CCN(/N=C/c2ccc(OCc3ccccc3)cc2)CC1` here?
**A.** inconclusive: 7.94 µM [inhibitor, partial curve]

**Q.** For `CCN(CC)S(=O)(=O)c1ccc2nnn(OCC(=O)Nc3cccc(C#N)c3)c2c1`, which Potency is on record?
**A.** inconclusive: 2.24 µM [inhibitor, full curve]

**Q.** With `Cc1nn(Cc2cccc(C(=O)NC(C)c3ccc(C(C)(C)C)cc3)c2)c(C)c1[N+](=O)[O-]` (configuration not stated) as the compound, how does the Potency read?
**A.** inconclusive: 20 µM [inhibitor, single point]

**Q.** With `CCC(C)NC(=O)c1cc(-c2cccs2)nc2ccccc12` (configuration not stated) as the compound, how does the Potency read?
**A.** inconclusive: 22.4 µM [inhibitor, partial curve]

**Q.** For `Cc1cc(N2CCN(c3ncccn3)CC2)nc2c(C)cccc12`, which Potency is on record?
**A.** inconclusive: 14.1 µM [inhibitor, partial curve, poor fit]

**Q.** With `N=c1c(S(=O)(=O)c2ccc(Br)cc2)cc2c(=O)n3ccccc3nc2n1C1CCCC1` as the compound, how does the “activity change, negative = inhibition” value read?
**A.** inactive: 7.53%

**Q.** With `C/C(=N\NC(=O)c1ccoc1C)c1ccccc1O` as the compound, how does the Potency read?
**A.** inconclusive: 22.4 µM [inhibitor, single point]

**Q.** With `Cc1ccc(C)n1-c1ccccc1N` as the compound, how does the “activity change, negative = inhibition” value read?
**A.** inactive: 2.15%

**Q.** With `Cc1cc(-c2cc(-c3ccc(Cl)cc3)on2)nc(NC2CCCC2)n1` as the compound, how does the Potency read?
**A.** inconclusive: 3.55 µM [inhibitor, full curve]

**Q.** Which “activity change, negative = inhibition” value does the source give for `O=c1c(Cc2ccccc2)c(O)nc2n1CCCS2` here?
**A.** inactive: 1.98%

**Q.** With `Nn1c(SCc2ccc(F)cc2)nnc1-c1cccnc1` as the compound, how does the “activity change, negative = inhibition” value read?
**A.** inactive: -5.02%

**Q.** Which Potency does the source give for `OC(CN1CCN(C(c2ccccc2)c2ccccc2)CC1)c1ccccc1` (configuration not stated) here?
**A.** inconclusive: 8.91 µM [inhibitor, partial curve]

**Q.** Which Potency does the source give for `COc1cc(NC(=O)c2cccc(C)c2)c(OC)cc1NC(=O)CN1CCOCC1` here?
**A.** inconclusive: 2.82 µM [inhibitor, full curve]

**Q.** For `CCN(c1ccccc1)S(=O)(=O)c1cccc(C(=O)NCC(c2ccc(F)cc2)N2CCOCC2)c1` (configuration not stated), which Potency is on record?
**A.** inconclusive: 11.2 µM [inhibitor, partial curve]

**Q.** Which Potency does the source give for `CC(C)c1nc(SCC(=O)Nc2nc3c(s2)CCCC3)c2ccccc2n1` here?
**A.** inconclusive: 7.08 µM [inhibitor, partial curve]

**Q.** Which “activity change, negative = inhibition” value does the source give for `C=CCNC(=O)c1ccc(CN2CCC(Cc3ccccc3)CC2)cc1` here?
**A.** inactive: -15.7%

**Q.** With `Cc1cccc(N2CCN(S(=O)(=O)c3ccc4c(c3)OCCO4)CC2)c1C` as the compound, how does the Potency read?
**A.** inconclusive: 15.8 µM [inhibitor, single point]

**Q.** With `Cc1cccc(C(=O)Nc2cc(S(=O)(=O)N3CCOCC3)ccc2N2CCCCC2)c1` as the compound, how does the Potency read?
**A.** inconclusive: 4.47 µM [inhibitor, full curve]

**Q.** With `CCOc1cc(C(=O)N/N=C/C(Br)=C/c2ccccc2)cc(OCC)c1OCC` as the compound, how does the Potency read?
**A.** inconclusive: 5.62 µM [inhibitor, full curve]

**Q.** Which Potency does the source give for `COc1ccc(-c2csc(NC(=O)CSCC(=O)Nc3cc(C)on3)n2)c(OC)c1` here?
**A.** inconclusive: 2.24 µM [inhibitor, single point]

**Q.** With `CCOC(=O)c1cccc(NC(=O)/C=C/c2ccc([N+](=O)[O-])cc2)c1` as the compound, how does the Potency read?
**A.** inconclusive: 1.58 µM [inhibitor, partial curve]

**Q.** For `CCC1Oc2ccc(C)cc2N(CC(=O)N(Cc2cccnc2)Cc2ccc(C)o2)C1=O` (configuration not stated), which Potency is on record?
**A.** inactive

**Q.** For `CC1CC1C(=O)Nc1nc(-c2cccs2)c(-c2cccs2)s1` (configuration not stated), which Potency is on record?
**A.** inconclusive: 31.6 µM [inhibitor, single point]

**Q.** With `Fc1ccc(N2N=C(c3cccs3)CC2c2ccccc2)cc1` (configuration not stated) as the compound, how does the Potency read?
**A.** inconclusive: 3.98 µM [inhibitor, full curve]

**Q.** Which Potency does the source give for `O=C(c1cccc(Cl)c1)C1CCCN(C(=O)c2ccc3c(c2)OCO3)C1` (configuration not stated) here?
**A.** inconclusive: 14.1 µM [inhibitor, single point]

**Q.** With `COc1ccc(C(=O)C(CCCCC(CN(C)C)C(=O)c2ccc(OC)cc2)CN(C)C)cc1` (configuration not stated) as the compound, how does the Potency read?
**A.** active: 3.55 µM

**Q.** Which Potency does the source give for `O=C1c2ccccc2C(=O)N1CCc1c[nH]c2ccc(O)cc12` here?
**A.** inconclusive: 2.82 µM [inhibitor, partial curve]

**Q.** With `CCOC(=O)NC1(Nc2cccc(Cl)c2)Oc2ccccc2O1` as the compound, how does the Potency read?
**A.** inconclusive: 11.2 µM [inhibitor, single point]

**Q.** Which Potency does the source give for `O=C(NCc1nnc(SCC(=O)N2CCCc3ccccc32)n1-c1ccccc1)c1cccc2ccccc12` here?
**A.** inconclusive: 31.6 µM [inhibitor, single point]

**Q.** Which “activity change, negative = inhibition” value does the source give for `O=C(Cc1ccccc1)NNC(=O)c1ccc(Br)o1` here?
**A.** inactive: 8.12%

**Q.** With `O=C(/C=C/c1cccc(Br)c1)NC1CCN(Cc2ccccc2)CC1` as the compound, how does the Potency read?
**A.** inconclusive: 7.94 µM [inhibitor, partial curve]
